# From PMC6212790
# Some of the results follow. At the low end of the ranking the order means little.
# Biological target: T1, GST-Rok (full length) (UniProt O34857)
# T1 sequence: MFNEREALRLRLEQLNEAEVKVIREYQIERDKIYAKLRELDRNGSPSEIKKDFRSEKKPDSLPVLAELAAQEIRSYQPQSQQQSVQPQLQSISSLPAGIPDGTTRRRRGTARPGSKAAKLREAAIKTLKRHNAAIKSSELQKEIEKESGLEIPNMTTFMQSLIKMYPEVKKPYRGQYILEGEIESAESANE
# Test: protein binding microarray;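 further: rank score from −0.5 (least bound) to 0.5 (best bound)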
# Details: Rok is a gene silencer of Bacillus subtilis; high values mean tight binding; most listed sequences are background and not binding sites; double strand, one strand shown
row,Sequence,binding signal
1,CCGCTATC,-0.227 E-score
2,CCTATTGC,-0.228 E-score
3,ACGTATTG,0.242 E-score
4,TATGCCAA,-0.0504 E-score
5,ATCATTAA,0.236 E-score
6,AGCTGGGA,-0.1 E-score
7,CATACTTA,0.175 E-score
8,AATGATTA,0.164 E-score
9,CCAGTCCC,-0.277 E-score
10,CGCGTGAC,-0.118 E-score
11,AACTATGG,0.0596 E-score
12,ACCCTACC,-0.111 E-score
13,ACTTACTA,0.306 E-score
14,ATCCGGCA,-0.0551 E-score
15,ATCTACGG,0.158 E-score
16,CGAGCGAC,-0.0942 E-score
17,CTTCTATC,0.265 E-score
18,GCTTTCAA,-0.14 E-score
19,CTAACCTA,0.186 E-score
20,AACAGAGG,0.0276 E-score
21,GCACACGC,-0.16 E-score
22,CGGAGCCG,-0.191 E-score
23,GAGCACCA,-0.18 E-score
24,AAACCTAG,0.24 E-score
25,ACACGCGC,-0.0459 E-score

row,Sequence,binding signal
1,CTCAACCA,-0.0207 E-score
2,TAATTCAA,0.105 E-score
3,ATGACCCA,-0.145 E-score
4,GACCGACC,-0.328 E-score
5,AAAAGATC,0.168 E-score
6,ATTACGTC,0.261 E-score
7,AAATCGTG,0.0562 E-score
8,ACAAGATA,0.326 E-score
9,CCGATCGA,-0.0744 E-score
10,GTGATCGA,-0.135 E-score
11,ACCCTAAC,-0.292 E-score
12,TGTACGAA,0.188 E-score
13,CGTTTTAC,0.0746 E-score
14,ATGGCCGA,-0.0575 E-score
15,AACCTGCC,-0.267 E-score
16,AGGCAATA,0.0511 E-score
17,CTCGACAG,-0.185 E-score
18,AAGCACAA,0.0437 E-score
19,CCAACGCG,-0.327 E-score
20,TATACAAA,0.402 E-score
21,CATTTAGG,0.0168 E-score
22,AACGCCCA,-0.335 E-score
23,AATCCATC,0.0541 E-score
24,AGGATAAC,0.0151 E-score
25,GCTATTCC,-0.0831 E-score

row,Sequence,binding signal
1,CATACTAG,0.312 E-score
2,GCGTTCGA,-0.105 E-score
3,AGTCCCCG,-0.269 E-score
4,ACCACTTG,0.176 E-score
5,CGTTTCGC,-0.192 E-score
6,CCGTTACC,-0.0167 E-score
7,AGGTGACG,-0.249 E-score
8,CAGACCTC,-0.198 E-score
9,GGCACGAA,-0.18 E-score
10,AGTACCAC,0.0156 E-score
11,GTACCGCA,0.033 E-score
12,GAGAAGAA,0.0707 E-score
13,AGCTGCAT,-0.0862 E-score
14,CACCAATC,-0.000217 E-score
15,AAAACCCG,-0.0675 E-score
16,GATATCAA,0.208 E-score
17,GTAGCTAA,0.373 E-score
18,ACGCTGAT,-0.0822 E-score
19,AAACTACG,0.377 E-score
20,CCCACTCG,-0.0767 E-score
21,ATATGCCG,0.0462 E-score
22,AGGTGCAC,-0.291 E-score
23,CTGCTGAA,0.0969 E-score
24,GTAGGCAA,0.0616 E-score
25,AGGCGACC,-0.228 E-score

row,Sequence,binding signal
1,AGCACTCG,-0.11 E-score
2,ACCAAACA,0.0769 E-score
3,GGTAGGGA,-0.0759 E-score
4,TGAAGTAA,0.137 E-score
5,CTGGTGCC,-0.123 E-score
6,CGAGCAAC,-0.122 E-score
7,GCCGTGTA,0.00757 E-score
8,ACCATAGA,-0.0234 E-score
9,ACGCATAA,0.0979 E-score
10,AACGCGCT,0.0978 E-score
11,CCGGGCTA,-0.243 E-score
12,AATTCTTA,0.218 E-score
13,TGTCGACA,-0.0439 E-score
14,CAACGTGG,0.0206 E-score
15,ATAGAGCC,-0.0243 E-score
16,GGATCTTA,0.0165 E-score
17,AAAATGCG,0.0533 E-score
18,CCTTGCGC,-0.116 E-score
19,CCTGACAG,-0.133 E-score
20,ACATAAGG,0.0132 E-score
21,CATGACCA,-0.0647 E-score
22,AATAGCTG,0.206 E-score
23,GGACTATA,0.0812 E-score
24,AGTCGCGG,-0.173 E-score
25,AGGGAGAA,-0.29 E-score

row,Sequence,binding signal
1,CGAAATAC,0.163 E-score
2,ACTCGCTG,-0.189 E-score
3,AGCCTCAC,-0.223 E-score
4,GGTAATCA,0.0323 E-score
5,CAGGGTAC,-0.0982 E-score
6,ACGGGACC,-0.279 E-score
7,AAAGCTCA,0.0744 E-score
8,AGTACATA,0.324 E-score
9,GAACCCCA,-0.209 E-score
10,ATAAGCGA,-0.133 E-score
11,ATGCCAAG,-0.0817 E-score
12,TCGAACCA,0.0879 E-score
13,GGGGATGA,-0.331 E-score
14,AACTCATG,0.132 E-score
15,ATCTTTTC,0.0687 E-score
16,CAGAGGTA,0.149 E-score
17,ACGTGCAT,0.064 E-score
18,ATAAGTGG,0.173 E-score
19,CGTGATAA,0.124 E-score
20,AGAGCTTC,-0.213 E-score
21,CCGCCCAC,-0.267 E-score
22,CCGCCGGC,-0.436 E-score
23,AAGGCGCC,-0.34 E-score
24,CCGTAGAA,0.32 E-score
25,ACTTCAAT,0.162 E-score

row,Sequence,binding signal
1,AGCGCATA,0.222 E-score
2,CACGTTAA,0.0985 E-score
3,AAAGGGAA,-0.166 E-score
4,TTCAGCAA,0.0648 E-score
5,CAAGCTGC,-0.178 E-score
6,GGGGCCCA,-0.342 E-score
7,CGTGCTTC,0.0956 E-score
8,CCCGGGTC,-0.306 E-score
9,ACTCATAG,-0.0449 E-score
10,ATAGGTTA,0.212 E-score
11,AACTAAAC,0.138 E-score
12,ATCTAGAG,-0.0608 E-score
13,GCACGTAA,0.0424 E-score
14,GAACCTTA,-0.0441 E-score
15,GAGATCGA,0.087 E-score
16,GAAGATCC,-0.296 E-score
17,ACCATCTC,-0.0707 E-score
18,ATATTGGC,-0.0597 E-score
19,GACTTCTC,-0.00746 E-score
20,GCGATGCA,-0.0695 E-score
21,CACCACCA,-0.236 E-score
22,ATTCGGTA,0.259 E-score
23,CCCAGCGA,-0.255 E-score
24,TTAATGAA,0.0882 E-score
25,CATTAAGA,-0.0463 E-score

row,Sequence,binding signal
1,CCATAGGG,-0.12 E-score
2,GGTTTGGA,-0.121 E-score
3,CCGAATTA,0.235 E-score
4,AGGACGAG,-0.434 E-score
5,TAAGCTTA,0.102 E-score
6,AATATATC,0.412 E-score
7,CAAACGGG,-0.192 E-score
8,CCTCGCTA,-0.239 E-score
9,GCGAGGAC,-0.222 E-score
10,AACCCCCC,-0.326 E-score
11,AATGATCG,0.157 E-score
12,CCTATAGC,0.122 E-score
13,ACACGTGA,0.0365 E-score
14,AATGGTAG,0.398 E-score
15,GGAGCCGA,-0.235 E-score
16,AATTTTTC,0.0424 E-score
17,ACAATTCC,0.242 E-score
18,GAACCGCA,0.0812 E-score
19,CCCTGACG,-0.349 E-score
20,GCTGTCCC,-0.204 E-score
21,CCCTCTCC,-0.435 E-score
22,CGGCATCA,-0.0891 E-score
